Article PMC4336329 (PLoS ONE, 2015)
Hit rate of the full screen: of about 310,000 compounds, about 2,200 (0.71%) showed an effect of 50% or more. Effects have a minus sign here. The list shows a part of the results.

Each compound was assayed against human ether-à-go-go-related gene (hERG) potassium channel (human, UniProt Q12809) (assay: primary screen, population patch clamp on CHO cells stably expressing hERG).
Sequence of human ether-à-go-go-related gene (hERG) potassium channel (Q12809 whole entry, looked up): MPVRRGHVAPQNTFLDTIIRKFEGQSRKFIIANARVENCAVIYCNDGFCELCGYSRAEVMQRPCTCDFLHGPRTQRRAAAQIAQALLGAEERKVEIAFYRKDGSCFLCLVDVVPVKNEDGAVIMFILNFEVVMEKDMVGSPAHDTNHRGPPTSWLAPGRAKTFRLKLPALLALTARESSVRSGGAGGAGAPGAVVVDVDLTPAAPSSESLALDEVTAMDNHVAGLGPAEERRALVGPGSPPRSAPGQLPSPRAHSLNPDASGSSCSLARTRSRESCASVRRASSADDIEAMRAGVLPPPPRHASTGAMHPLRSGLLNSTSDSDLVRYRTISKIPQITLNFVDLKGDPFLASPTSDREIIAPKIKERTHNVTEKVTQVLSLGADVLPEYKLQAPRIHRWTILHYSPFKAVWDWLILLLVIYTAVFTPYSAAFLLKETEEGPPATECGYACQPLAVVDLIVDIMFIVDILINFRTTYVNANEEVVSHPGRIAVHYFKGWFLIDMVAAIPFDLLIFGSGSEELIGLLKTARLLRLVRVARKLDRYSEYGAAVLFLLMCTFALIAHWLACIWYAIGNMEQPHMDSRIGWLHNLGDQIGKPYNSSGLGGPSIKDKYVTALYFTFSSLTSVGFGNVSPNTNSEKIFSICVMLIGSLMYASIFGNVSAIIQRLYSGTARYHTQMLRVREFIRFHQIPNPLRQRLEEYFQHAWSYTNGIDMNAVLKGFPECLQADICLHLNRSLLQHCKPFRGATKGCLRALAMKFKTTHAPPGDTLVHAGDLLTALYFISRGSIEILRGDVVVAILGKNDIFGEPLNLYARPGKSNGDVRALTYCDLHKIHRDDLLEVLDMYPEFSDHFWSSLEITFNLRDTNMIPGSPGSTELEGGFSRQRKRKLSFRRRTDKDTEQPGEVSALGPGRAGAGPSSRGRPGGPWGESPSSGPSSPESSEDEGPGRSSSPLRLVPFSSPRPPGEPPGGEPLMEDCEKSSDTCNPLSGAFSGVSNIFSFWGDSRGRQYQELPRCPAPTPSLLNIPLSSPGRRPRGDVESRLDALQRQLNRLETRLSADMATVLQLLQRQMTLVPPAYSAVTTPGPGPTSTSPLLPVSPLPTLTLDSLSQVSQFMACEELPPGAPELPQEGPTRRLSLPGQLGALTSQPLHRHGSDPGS
For `C=C1C(=O)O[C@@H]2C[C@@H](C)[C@@H]3C=CC(=O)[C@@]3(C)[C@@H](O)[C@H]12`, the “hERG current change (%, negative = inhibition) at 1uM” value was 14.8%.
With `COc1cccc(NC(=S)N2CCN(S(=O)(=O)c3ccccc3)CC2)c1` the “hERG current change (%, negative = inhibition) at 1uM” value was 13.1%.
`COC(=O)c1ccccc1NC(=O)c1c(Br)cnn1C` was tested, and the “hERG current change (%, negative = inhibition) at 1uM” value was 8.01%.
For `Br.COc1ccc(-c2csc(=NCCO)n2-c2ccccc2)cc1`, the “hERG current change (%, negative = inhibition) at 1uM” value was 9.52%.
In the case of `CCn1cc(C(=O)NCCC(C)C)c(=O)c2cc(S(=O)(=O)N3CCCCC3)ccc21`, the “hERG current change (%, negative = inhibition) at 1uM” value is reported as 6.52%.
`COc1cc(/C=C/C(=O)O)cc(S(=O)(=O)Nc2ccc(F)cc2)c1OC` was tested, and the “hERG current change (%, negative = inhibition) at 1uM” value was 14.4%.
`COc1ccc(Br)cc1CNc1ccc(S(N)(=O)=O)cc1` was tested, and the “hERG current change (%, negative = inhibition) at 1uM” value was 6.29%.
`COc1cccc(OC)c1C(=O)Nc1cc2c(cc1N1CCOCC1)n(C)c(=O)n2C` was tested, and the “hERG current change (%, negative = inhibition) at 1uM” value was 12.5%.
`Cc1cccc(-n2c(SCC(=O)N3CCCC3)nc3n[nH]c(C)c3c2=N)c1` was tested, and the “hERG current change (%, negative = inhibition) at 1uM” value was -2.81%.
`CC1(C)Cc2c(sc3nc(-c4ccccc4)oc(=O)c23)CO1` was tested, and the “hERG current change (%, negative = inhibition) at 1uM” value was 4.22%.
`COC(=O)C1=C(c2ccc(-c3ccccc3)c(F)c2)C[C@@H]2CC[C@H]1N2C(=O)NC1CC1` was tested, and the “hERG current change (%, negative = inhibition) at 1uM” value was -4.48%.
With `COc1cccc(-c2cc(C(=O)N3CC4(C)CC3CC(C)(C)C4)no2)c1` (stereo not shown) the “hERG current change (%, negative = inhibition) at 1uM” value was -2.6%.
In the case of `O=C(Cn1nc(-c2ccc(Cl)cc2)c2ccccc2c1=O)Nc1cccnc1`, the “hERG current change (%, negative = inhibition) at 1uM” value is reported as 4.61%.
With `O=C(CCN1C(=O)/C(=C/c2ccccc2)SC1=S)NNC(=O)c1cccnc1` the “hERG current change (%, negative = inhibition) at 1uM” value was 17.5%.
With `COc1ccc(-n2nnnc2SCC(=O)Nc2ccccc2N2CCOCC2)cc1` the “hERG current change (%, negative = inhibition) at 1uM” value was -6.62%.
For `COc1ccc2[nH]cc(CCNC(=O)C3CC(=O)N(c4ccc(Cl)cc4)C3)c2c1` (stereo not shown), the “hERG current change (%, negative = inhibition) at 1uM” value was 11.1%.
`O=C1CSC(c2ccncc2)N1Cc1ccc(F)cc1` (stereo not shown) was tested, and the “hERG current change (%, negative = inhibition) at 1uM” value was 11.3%.
`O=C(/C=C/c1cccs1)N1CCC2(CC1)Oc1ccc(Cl)cc1C(=O)C21CC(c2ccccc2)=NO1` (stereo not shown) was tested, and the “hERG current change (%, negative = inhibition) at 1uM” value was 17.1%.
For `O=C(COc1coc(CN2CCc3ccccc3C2)cc1=O)Nc1ccccc1F`, the “hERG current change (%, negative = inhibition) at 1uM” value was 7.92%.
With `Cc1cc(NS(=O)(=O)c2ccc(NC(=O)/C=C/c3cccc(Cl)c3)cc2)no1` the “hERG current change (%, negative = inhibition) at 1uM” value was 16.1%.
With `COc1ccc(/C=C/C=C2\NC(=S)NC2=O)cc1` the “hERG current change (%, negative = inhibition) at 1uM” value was 14.5%.
In the case of `CC(=O)c1sc(NC(=O)C2CSC3(C)CCC(=O)N23)nc1-c1ccccc1` (stereo not shown), the “hERG current change (%, negative = inhibition) at 1uM” value is reported as 4.11%.
With `Cc1cc(C)c(NS(=O)(=O)c2c(C)noc2C)c(C)c1` the “hERG current change (%, negative = inhibition) at 1uM” value was 12.6%.
In the case of `Cc1cccc(NS(=O)(=O)c2ccc(C(=O)NCC3(N4CCCCC4)CCCCC3)cc2)c1C`, the “hERG current change (%, negative = inhibition) at 1uM” value is reported as -0.915%.
With `CCC1CCCCN1C(=O)c1ccccc1OC1CCN(S(C)(=O)=O)CC1` (stereo not shown) the “hERG current change (%, negative = inhibition) at 1uM” value was 9.54%.
In the case of `Cc1cc(C)n(CC(=O)c2cccc([N+](=O)[O-])c2)n1`, the “hERG current change (%, negative = inhibition) at 1uM” value is reported as 11.9%.
In the case of `O=C1NC2(C=Cc3c(ccc4ccccc34)O2)Oc2ccccc21` (stereo not shown), the “hERG current change (%, negative = inhibition) at 1uM” value is reported as 11.9%.
`CC1Cc2ccccc2N1C(=O)CN1CCN(Cc2ccccc2)CC1.O=C(O)C(=O)O` (stereo not shown) was tested, and the “hERG current change (%, negative = inhibition) at 1uM” value was 12.6%.
With `CCC(NC(=O)NNC(N)=S)(C(F)(F)F)C(F)(F)F` the “hERG current change (%, negative = inhibition) at 1uM” value was 2.63%.
`COC1CCCN(Cc2c(C(=O)N3CCc4ccccc4C3)nc3ccc(Cl)cn23)C1` (stereo not shown) was tested, and the “hERG current change (%, negative = inhibition) at 1uM” value was 4.27%.
With `CCOc1ccc(N2CC(NS(=O)(=O)c3cccs3)CC2=O)cc1` (stereo not shown) the “hERG current change (%, negative = inhibition) at 1uM” value was 11.6%.
`CCOc1ccc(Nc2nc(Cc3nnc(SCC(=O)N(CC)CC)n3C)cs2)cc1` was tested, and the “hERG current change (%, negative = inhibition) at 1uM” value was 3.38%.
In the case of `COc1ccc(CCNC(=O)c2ccccc2)cc1`, the “hERG current change (%, negative = inhibition) at 1uM” value is reported as 7.62%.
For `COc1ccc(-c2cc(CNS(=O)(=O)c3ccc(F)cc3)on2)cc1`, the “hERG current change (%, negative = inhibition) at 1uM” value was 18.4%.
For `Cc1ccc(CNC(=O)COC(=O)c2ccc(Cl)c(N)c2)cc1`, the “hERG current change (%, negative = inhibition) at 1uM” value was 2.65%.
`COc1ccc(C(=O)Nc2ccccc2C(=O)N2CCOCC2)cc1` was tested, and the “hERG current change (%, negative = inhibition) at 1uM” value was 17%.
In the case of `CC1(C)CC(=O)N(c2cccc(Cl)c2)C(=O)C1`, the “hERG current change (%, negative = inhibition) at 1uM” value is reported as 12.1%.
With `OCC(CBr)(CBr)CBr` the “hERG current change (%, negative = inhibition) at 1uM” value was 20.2%.
`O=C(Nc1ccc2nc3n(c(=O)c2c1)CCCCC3)C(=O)N1CCN(c2ccccc2F)CC1` was tested, and the “hERG current change (%, negative = inhibition) at 1uM” value was 14.7%.
`C=CCN1C(=O)/C(=C/c2ccc3c(c2)CCCN3CCC)C(=O)NC1=S` was tested, and the “hERG current change (%, negative = inhibition) at 1uM” value was 6.31%.
With `CC(CNC(=O)c1ccc(N)cc1)NC(=O)c1ccc(N)cc1` (stereo not shown) the “hERG current change (%, negative = inhibition) at 1uM” value was 12%.
In the case of `C=CCn1sc(=N)c(C#N)c1N`, the “hERG current change (%, negative = inhibition) at 1uM” value is reported as 0.476%.
In the case of `O=C(CSc1ccc(-c2ccco2)nn1)NC1CCCCC1`, the “hERG current change (%, negative = inhibition) at 1uM” value is reported as -2.98%.
`COc1ccc(CCNC(=O)CCS(=O)(=O)c2ccc(Br)cc2)cc1OC` was tested, and the “hERG current change (%, negative = inhibition) at 1uM” value was -3.51%.
In the case of `Cc1cc(NC(=O)c2cccc(Br)c2)n[nH]1`, the “hERG current change (%, negative = inhibition) at 1uM” value is reported as 8.04%.
`O=C(O)c1ccccc1S(=O)(=O)Cc1ccccc1` was tested, and the “hERG current change (%, negative = inhibition) at 1uM” value was 9.84%.
For `Cc1nc2ccc(NC(=O)c3ccc4ccccc4n3)cc2s1`, the “hERG current change (%, negative = inhibition) at 1uM” value was 12.1%.
`COc1ccc(NC(=O)C2(c3ccc(NC(=O)c4ccc(OC(C)=O)cc4)cc3)CCCC2)cc1` was tested, and the “hERG current change (%, negative = inhibition) at 1uM” value was 11.8%.
With `Nc1nc(SCC(=O)Nc2cc(C(F)(F)F)ccc2Cl)[nH]c(=O)c1NC(=O)c1ccco1` the “hERG current change (%, negative = inhibition) at 1uM” value was 16.7%.
`CN(C(=O)NC1CC(=O)N(c2ccc3c(c2)OCCO3)C1)c1ccccc1` (stereo not shown) was tested, and the “hERG current change (%, negative = inhibition) at 1uM” value was 2.53%.
With `COc1ccc(C)cc1NC(=O)C(Sc1nnc2ccccn12)c1ccccc1` (stereo not shown) the “hERG current change (%, negative = inhibition) at 1uM” value was -20.9%.
In the case of `CCN(CC)C(=O)C(Sc1nnnn1-c1ccc(O)cc1)c1ccccc1` (stereo not shown), the “hERG current change (%, negative = inhibition) at 1uM” value is reported as 14.1%.
In the case of `O=C(O)C1=C[C@H](c2ccc(F)cc2)C[C@H](OCc2ccc(CO)cc2)O1`, the “hERG current change (%, negative = inhibition) at 1uM” value is reported as 4.46%.
With `COc1ccc(NS(=O)(=O)c2cc(NC(=O)/C=C/c3cc(OC)c(OC)c(OC)c3)ccc2N2CCCCC2)cc1` the “hERG current change (%, negative = inhibition) at 1uM” value was 6.88%.
With `O=C1C2C3C=CC(CC3)C2C(=O)N1c1cccc(Br)c1` (stereo not shown) the “hERG current change (%, negative = inhibition) at 1uM” value was 18.4%.
